Out of some 130,000 compounds screened, about 1,200 (0.92%) were called active. This list was built around the results that the source calls inconclusive (neither active nor inactive); the mix of calls is not that of the screen. The call rests on the fitted dose curve; in most records, active means well fitted cell-killing curve with a large enough effect; inconclusive means small, poorly fitted or top-dose-only effect; inactive means no such curve, though single readings can be large or run the other way. Potencies beside an inconclusive call are fits to weak or partial responses and may not hold up.
Test: qHTS Screen for Compounds that Selectively Target Cancer Cells with p53 Mutations: Cytotoxicity of p53ts Cells at the Permissive Temperature; further: nearly all actives have a fitted effect of over 55% in size;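 on activity change, negative = cytotoxicity: 0% = DMSO and -100% = full killing by reference compound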
Conditions: H1299-p53A138V at 32C, ATP luminescence viability, 24 h; activity change, negative = cytotoxicity: at 46.1 µM (top of the series)
Procedure, shortened: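 H1299-p53 A138V cells (temperature-sensitive p53) exposed 24 h to up to 46 uM compound at 32C, where p53 is wild-type in conformation. Viability read as ATP luminescence and normalised to DMSO and 100 uM tamoxifen. AC50 fitted with the Hill equation.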
Potency means the concentration at half of the fitted maximal effect; tags describe the fitted curve by direction and shape.

With Cc1ccc(Cc2cn3cc(-c4ccc(F)cc4)nc3s2)cc1 as the compound, how does the Potency read?
Its Potency is inconclusive: 7.94 µM [cytotoxic, partial curve].

Which “activity change, negative = cytotoxicity” value does the source give for CC(=O)n1c2ccccc2c2c(C#N)c(N3CCCCC3)sc21 here?
Its value is inactive: 5.8%.

Which Potency does the source give for COc1cccc(-c2cn3ncsc3n2)c1 here?
The Potency was inconclusive: 12.6 µM [cytotoxic, partial curve].

For Cc1cccc(-n2ncc3c(NC(C)C)ncnc32)c1, which Potency is on record?
The Potency was active: 12.6 µM.

For CCC(=O)Nc1cc2nn(-c3ccc(OC)cc3)nc2cc1C, which Potency is on record?
Its Potency is inconclusive: 6.31 µM [cytotoxic, full curve].

For Nc1nnc(-c2cc3ccccc3oc2=O)s1, which Potency is on record?
The Potency was inconclusive: 12.6 µM [cytotoxic, partial curve].

With Cc1ccc(CNC(=O)c2ccc(Cn3c(=O)c4ccccc4n(CC(=O)Nc4c(C)cc(C)cc4C)c3=O)cc2)cc1 as the compound, how does the Potency read?
Its Potency is active: 15.8 µM.

For CCc1ccc(NC(=O)C2CCCN2S(=O)(=O)c2ccc3c(c2)CCCC(=O)N3)cc1 (configuration not stated), which “activity change, negative = cytotoxicity” value is on record?
Its value is inactive: -3.19%.

Which Potency does the source give for CCOc1ccc(OCCSc2nc(C)cc(=O)[nH]2)cc1 here?
Its Potency is inconclusive: 15.8 µM [cytotoxic, single point].

Which Potency does the source give for COC1=CC(=O)C(C(=O)c2ccccc2)=CC1=O here?
The Potency was inconclusive: 31.6 µM [cytotoxic, single point].

Which Potency does the source give for Cc1ccc(OCC(=O)Nc2cccc(C(=O)OCc3cc(=O)n4c(C)csc4n3)c2)cc1 here?
The Potency was inconclusive: 10 µM [cytotoxic, single point].

With CCOC(=O)c1c(S(=O)(=O)N2CCC(C(=O)N3CCN(c4ccc(F)cc4)CC3)CC2)c(C)n(C)c1C as the compound, how does the “activity change, negative = cytotoxicity” value read?
The value was inactive: 7.75%.

With Nc1nc(Cl)nc2c1ncn2[C@@H]1O[C@H](CO)[C@@H](O)[C@H]1O as the compound, how does the Potency read?
The Potency was active: 20 µM.

With COc1cc(COc2cc(N)c(Cl)cc2C(=O)CCC2CCN(CCNS(C)(=O)=O)CC2)cc(OC)c1 as the compound, how does the Potency read?
The Potency was active: 31.6 µM.

Which Potency does the source give for CN(Cc1ccccc1)c1ncnc2c1cnn2-c1ccccc1 here?
Its Potency is inconclusive: 10 µM [cytotoxic, partial curve].

Which “activity change, negative = cytotoxicity” value does the source give for O=C(Nc1ccc(C(F)(F)F)cc1)C(Cc1ccccc1)n1cccc1 (configuration not stated) here?
The value was inactive: -10%.

Which Potency does the source give for CN(C)C(=O)c1ccc(-c2nc(N3CCOCC3)c3ccccc3n2)cc1 here?
The Potency was inconclusive: 10 µM [cytotoxic, partial curve].

For Cc1ccc(NC(=O)c2c(NC(=O)C(F)(F)F)sc3c2CCCCC3)cc1, which Potency is on record?
Its Potency is inconclusive: 0.794 µM [cytotoxic, full curve, poor fit].

With c1cc2c(cc1C1CCCCC1)c1c3n2CCN[C@H]3CCC1 as the compound, how does the Potency read?
The Potency was active: 25.1 µM.

Which “activity change, negative = cytotoxicity” value does the source give for CCCCOC(=O)C(C#N)c1nc2ccccc2nc1N1CCOCC1 (configuration not stated) here?
Its value is inactive: 4.58%.

For N#C/C(=C\c1ccc([N+](=O)[O-])o1)c1nc2ccccc2[nH]1, which Potency is on record?
The Potency was inconclusive: 0.891 µM [cytotoxic, partial curve].

For COC(=O)c1ccccc1NC(=O)CCS(=O)(=O)c1nc(-c2ccc3c(c2)OCO3)cc(C(F)(F)F)n1, which Potency is on record?
Its Potency is inconclusive: 31.6 µM [cytotoxic, single point].

Which Potency does the source give for COc1ccc(CCN2CCC(CNC(=O)c3cnn(-c4cccc(Cl)c4)c3C3CCN(C(=O)OC(C)(C)C)CC3)CC2)cc1 here?
The Potency was inconclusive: 31.6 µM [cytotoxic, single point].

For CC(C)NC(=O)c1cc2c(s1)CCCC2, which Potency is on record?
The Potency was inconclusive: 12.6 µM [cytotoxic, partial curve].

With CCC(=O)Nc1cccc(-c2nc3cc(C)ccc3o2)c1 as the compound, how does the Potency read?
Its Potency is inconclusive: 12.6 µM [cytotoxic, partial curve].

With Clc1ccc(-c2nnc3sc(-c4ccco4)nn23)c(Cl)c1 as the compound, how does the “activity change, negative = cytotoxicity” value read?
Its value is inactive: 6.61%.

For COCCn1nnnc1C(c1ccccc1)N1CCN(Cc2ccc3c(c2)OCO3)CC1 (configuration not stated), which “activity change, negative = cytotoxicity” value is on record?
The value was inactive: 5.21%.

Which Potency does the source give for CCCCNc1cc(C)nc(NCc2ccccc2)n1 here?
Its Potency is inconclusive: 25.1 µM [cytotoxic, partial curve].

For O=C1CCCc2nc(N3CCc4ccccc43)ncc21, which Potency is on record?
Its Potency is inconclusive: 7.94 µM [cytotoxic, partial curve].

With COC(=O)c1ccc(NC(=O)CCc2c(C)nn(-c3ccc(N4CCCCC4)nn3)c2C)cc1 as the compound, how does the Potency read?
Its Potency is inconclusive: 10 µM [cytotoxic, partial curve].

With Cc1ccc(CSc2nc3cccnc3n2Cc2ccc(C(=O)NC3CCCCC3)cc2)cc1 as the compound, how does the Potency read?
Its Potency is active: 11.2 µM.

With O=C(CSc1oc(-c2ccc(F)cc2)nc1S(=O)(=O)c1ccc(Br)cc1)NC1CCCCC1 as the compound, how does the “activity change, negative = cytotoxicity” value read?
Its value is inactive: -3.41%.

With CCC[C@@H]1C[C@@]1(CCC)[C@@H](NP(=O)(c1ccccc1)c1ccccc1)c1ccc(C(=O)OC)cc1 as the compound, how does the Potency read?
Its Potency is inconclusive: 31.6 µM [cytotoxic, single point].

With CCn1c2ccccc2c2nc3ccccc3nc21 as the compound, how does the “activity change, negative = cytotoxicity” value read?
Its value is inactive: -10.5%.

For CC(C)c1ccccc1N=C1SCCN1C1CCS(=O)(=O)C1 (configuration not stated), which “activity change, negative = cytotoxicity” value is on record?
The value was inactive: 1.39%.

For Cc1ccc(-c2nc(-c3cccnc3)no2)cc1, which Potency is on record?
The Potency was inconclusive: 10 µM [cytotoxic, partial curve].

For CCOC(=O)c1ccc(NC(=O)CN2C(=O)C(C)(C)c3ccccc32)cc1, which Potency is on record?
Its Potency is inconclusive: 3.16 µM [cytotoxic, single point].

For COc1cccc2c(=O)n(CC(=O)N3CCN(c4ccccc4)CC3)ccc12, which Potency is on record?
The Potency was inconclusive: 0.631 µM [cytotoxic, single point].

Which Potency does the source give for CN(Cc1ccccc1)C(=O)CSc1c2c(nc3ccc(Cl)cc13)CCCC2 here?
The Potency was active: 22.4 µM.

Which “activity change, negative = cytotoxicity” value does the source give for COc1ccc(-n2nc(C(=O)NCCc3ccc(Cl)cc3)c3c4ccccc4n(C)c3c2=O)cc1 here?
Its value is inactive: -6.55%.

With COc1cc(NC(=O)Cn2c(-c3ccccc3)cc(C(C)=O)c2C)cc(OC)c1 as the compound, how does the “activity change, negative = cytotoxicity” value read?
Its value is inactive: 5.42%.

For Cc1ccc(Cl)cc1NC(=O)c1sc2nc(C)c(C)c(C)c2c1N, which “activity change, negative = cytotoxicity” value is on record?
Its value is inactive: -4.23%.

For CCOc1ccc(N2Cc3ncccc3C2=O)cc1, which Potency is on record?
Its Potency is inconclusive: 10 µM [cytotoxic, partial curve].

For CCOc1ccc2nc(NC(=O)c3nc(SC(C)C)ncc3Cl)sc2c1, which Potency is on record?
Its Potency is inconclusive: 31.6 µM [cytotoxic, single point].

Which Potency does the source give for Cc1nnc(N2CCN(C(=O)Nc3cc(F)ccc3F)CC2)c2nn(-c3ccc(Cl)cc3)c(C)c12 here?
Its Potency is inconclusive: 31.6 µM [cytotoxic, single point].

For O=C(N/N=C\c1ccccc1O)c1ccccc1O, which Potency is on record?
Its Potency is active: 1.26 µM.

For Cc1cc(=O)n2[nH]c(-c3ccccc3Cl)cc2n1, which Potency is on record?
Its Potency is inconclusive: 15.8 µM [cytotoxic, partial curve].

With CS(=O)(=O)Nc1cccc(-c2nc(NCc3ccccc3)c3ccccc3n2)c1 as the compound, how does the Potency read?
Its Potency is inconclusive: 25.1 µM [cytotoxic, single point].

With CCOC(=O)Nc1ccc2c(c1)N(C(=O)CCN1CCOCC1)c1ccccc1S2=O (configuration not stated) as the compound, how does the Potency read?
The Potency was inconclusive: 31.6 µM [cytotoxic, single point].

Which Potency does the source give for CCOC(=O)Cc1c(C)nc2c(-c3ccc(Cl)cc3)c[nH]n2c1=O here?
The Potency was inconclusive: 12.6 µM [cytotoxic, partial curve].

For O=C(CSc1nnc(NC(=O)NC2CCCCC2)s1)Nc1ccccc1F, which Potency is on record?
The Potency was active: 10 µM.

Which “activity change, negative = cytotoxicity” value does the source give for COc1ccc2oc(=O)c(-c3csc(/C(C#N)=C/c4ccc(F)cc4)n3)cc2c1 here?
Its value is inactive: -4.74%.

For COc1ccc(-c2cc(=O)n3[nH]cnc3n2)cc1, which Potency is on record?
The Potency was inconclusive: 12.6 µM [cytotoxic, partial curve].

With COC1(OC)C(/C=C/c2ccc(Cl)cc2)C(C#N)(C#N)C1(OC)OC (configuration not stated) as the compound, how does the Potency read?
Its Potency is inconclusive: 17.8 µM [cytotoxic, single point].

Which Potency does the source give for CCC1CN(C(=O)NCc2ccc(C)cc2)c2cc(C)ccc2O1 (configuration not stated) here?
Its Potency is inconclusive: 35.5 µM [cytotoxic, single point].

For Oc1ccccc1-c1nnc(COc2ccc(Cl)cc2Cl)o1, which “activity change, negative = cytotoxicity” value is on record?
Its value is inactive: -11%.

Which Potency does the source give for O=C(Nc1ccccc1Cl)N1CCN(c2ccc3nnc(-c4ccccc4)n3n2)CC1 here?
Its Potency is inconclusive: 31.6 µM [cytotoxic, single point].

For COCCCn1c2nc3ccccc3nc2c2c(=O)n(Cc3ccccc3Cl)cnc21, which “activity change, negative = cytotoxicity” value is on record?
Its value is inactive: 7.71%.

Which Potency does the source give for COc1cccc(NC(=O)CSc2nc3ccc(NC(=O)c4ccco4)cc3s2)c1 here?
Its Potency is inconclusive: 15.8 µM [cytotoxic, single point].

For O=C(Cn1cnc2c(nc3n2CCCCC3)c1=O)Nc1ccc(F)cc1, which “activity change, negative = cytotoxicity” value is on record?
The value was inactive: -7.97%.

With Cc1ccc(-n2c3c(c(=O)[nH]c2=O)C(NC(=O)c2ccccc2F)(C(F)(F)F)C(=O)N3)cc1C (configuration not stated) as the compound, how does the “activity change, negative = cytotoxicity” value read?
Its value is inactive: 5.4%.

Which Potency does the source give for O=C(Nc1ccccn1)c1ccc(NC(=O)c2ccco2)cc1 here?
The Potency was inconclusive: 10 µM [cytotoxic, partial curve].

Which Potency does the source give for COc1ccc(Nc2cc(C)nc(-n3nc(C)cc3C)n2)cc1Cl here?
Its Potency is inconclusive: 31.6 µM [cytotoxic, single point].

For O=C(Nc1ccc(N2CCCCC2)c(Cl)c1)c1ncn[nH]1, which Potency is on record?
The Potency was inconclusive: 12.6 µM [cytotoxic, partial curve].

Which “activity change, negative = cytotoxicity” value does the source give for O=C(CN1CCSc2ccccc21)N1CCN(c2cccc(Cl)c2)CC1 here?
The value was inactive: -10.4%.

For Cc1ccc(-n2ncc3c(NC4CCCCC4)ncnc32)cc1, which Potency is on record?
Its Potency is inconclusive: 2.51 µM [cytotoxic, full curve].

With CSCCC=O as the compound, how does the activity change, negative = cytotoxicity read?
Its activity change, negative = cytotoxicity is inactive: 9.36% [at 1.84 µM].

Which Potency does the source give for CCOc1cc(C2CC(=O)Nc3nc(SCc4ccccc4)[nH]c(=O)c32)ccc1O (configuration not stated) here?
Its Potency is inconclusive: 6.31 µM [cytotoxic, single point].

With CCCSCCCNC(=O)c1ccc2c(c1)nc1n2CCCCC1 as the compound, how does the Potency read?
Its Potency is inconclusive: 20 µM [cytotoxic, partial curve].

Which Potency does the source give for CC(C)c1cc(-c2nc(-c3ccccc3)no2)n[nH]1 here?
The Potency was inconclusive: 12.6 µM [cytotoxic, partial curve].

Which Potency does the source give for O=C(CSc1nc(-c2ccccc2)[nH]c1-c1ccccc1)Nc1ccc2c(c1)OCCO2 here?
Its Potency is inconclusive: 35.5 µM [cytotoxic, single point].

Which Potency does the source give for COc1ccc(-c2coc3cc(OC(C)=O)cc(OC(C)=O)c3c2=O)cc1 here?
Its Potency is inconclusive: 12.6 µM [cytotoxic, partial curve].
